This passage reports self-cleavage results from the RNAGym collection of RNA variant scans (doi:10.1093/nar/gkz1192).

The source gives no read counts; variants with many changes may rest on few reads.

B1: CPEB3 Ribozyme (parent)
chain: UAACAGGGGGCCACAGCAGAAGCGUUCACGUCGCAGCCCCUGUCAGAUUCUGGUGAAUCUGCGAAUUCUGCUGUAUAUCUC

In the data set the parent is B1. Kind of data set: self-cleavage, relative activity (ratio to wild type); higher = more cleavage; in vitro, sequencing. In a few lines: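 Relative activity compares each variant's cleaved/total read fraction with that of the unmutated ribozyme. To get these fractions, barcoded CPEB3 ribozyme libraries from rounds of error-prone PCR were transcribed with T7 RNA polymerase for 5 hours at 37°C and then given 15 min of DNase I treatment before EDTA was added. The RNAs were reverse transcribed with template switching and sequenced on Illumina, and DNA sequencing linked barcodes to variants. A minimum of 5 reads applied, and three batches were averaged.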
For A18G U41G U48C U49A U78C C81A, the self-cleavage was 0.2. As to A18G U66C U67C, the self-cleavage came out at 0.27. To A18G U25C C38U U51A belongs 0.18; to A18G U26C A56U G61U A64G, 0.17. The same measure for A18G U25C U54G: 0.26. To A18U A56U A64G A65G belongs 0.18; to A18G U41C U54A A57C U76C, 0.2; to A18U C38G U60A C81U, 0.21. On to A18U C38A U51A, for which the self-cleavage was found to be 0.19.

Turning to A18G U41A A45G U48A U69C, the self-cleavage was 0.4.

For the variant A18G U26C A28U, the self-cleavage turned out to be 0.27.

For A18U C27A G63A A77G, the self-cleavage worked out at 0.06. For the variant A18U A20G A21G U69A U78C, the self-cleavage was 0.34. To A18G U25C U43C U58C belongs 0.06. To A18G U48C U58C U69C U72C U78C belongs 0.15; to A18G U41C G46C U49C U58C U60A U80C, 0.12; to A18G U31A A35G U41C, 0.63. Regarding A18G U49C U78C, the self-cleavage was 0.17. Turning to A18G U31A U49C U51C, the self-cleavage is 0.1.

On to A18U A21G C68A, for which the self-cleavage worked out at 0.06. For the variant A18U A35G A56G U60A U78C, the self-cleavage is 0.37. For the variant A18U A64U U69G A75U U80A, the self-cleavage stood at 0.36. To A18U A20G G42U belongs 0.39. To A18U A28U U51C U54C U66C belongs 0.25; to A18G U26A U43A, 0.19.

Take A18G U58C U72A U78A: the self-cleavage is 0.17. As to A18G U43C C62U, the self-cleavage amounted to 0.23. A18U A45U A64G U78C: the self-cleavage came to 0.1. To A18G U26C U48C U60C belongs 0.41; to A18G U41G U43C, 0.46.

Regarding A18U A20G U69A, the self-cleavage came to 0.64.

Take A18U A20G U60C: the self-cleavage turned out to be 0.32. For A18U A28U G30A U48C, the self-cleavage stood at 0.12.

As for A18U C29U A35U U41A A47G A57G G61A, the self-cleavage is 0.05.

For A18G U25G U54C U80C, the self-cleavage was 0.12.

Regarding A18G U58C U67A, the self-cleavage came to 0.23. The same measure for A18G U25C C40U: 0.05. To A18G U48C A56U A64U U66C U72A belongs 0.11; to A18U A57U U66C, 0.11; to A18G U25C U43C U60A U69C U74C, 0.07. Take A18U A47U U72A: the self-cleavage worked out at 0.38. The same measure for A18G U43C U48C C62U: 0.14; for A18G U25C U67C U80C: 0.28. To A18G U31C A64U U74C belongs 0.22; to A18G U51C U54A C59A, 0.31; to A18U A45G A57G U66A, 0.13. Take A18G U26A A75G A77U: the self-cleavage is 0.17. Take A18U C29A U31C A56G U66C U72C: the self-cleavage worked out at 0.14. The same measure for A18U A21G U41A A45G: 0.29; for A18U A35U U54C A64U: 0.14. To A18G U51A U66C U67A belongs 0.15; to A18U A21G A56G U67C U72A, 0.05; to A18G U26C C27U A28G G33C, 0.05.

Regarding A18G U43C U48C, the self-cleavage was 0.38. With A18G U25C C39A, the self-cleavage amounted to 0.23.

Turning to A18G U54C U67C U78G, the self-cleavage came to 0.13.

As to A18U A45U U51C U72G, the self-cleavage came out at 0.1. The same measure for A18G U48A U51A U67A A77U U80C: 0.13.

As to A18G U54A A57G U60A, the self-cleavage turned out to be 0.37. With A18G U31C U78A U80C, the self-cleavage worked out at 0.38. In the case of A18G U31A A64G, the self-cleavage is 0.18. As to A18U A28U A45G U60C U69A U80C, the self-cleavage stood at 0.97. A18G U43A U72C U74C: the self-cleavage is 0.91.

As to A18G U41C U58C, the self-cleavage stood at 0.45. To A18U A20U G46U C62G belongs 0.15; to A18G U31C A45C U49G, 0.31.

Consider A18G U31A U78C, for which the self-cleavage amounted to 0.32. The same measure for A18U A20G U26A U51A: 0.19; for A18G U49A A56G: 0.19.

For A18U A28G A35G A45C A65G U80C, the self-cleavage amounted to 0.21. To A18G U41C A45G U67A belongs 0.21; to A18G U25C U31C U49C U66C U69G, 0. Regarding A18U A45G U51A, the self-cleavage amounted to 0.27. To A18G U48C A77U U78C belongs 0.24; to A18U A20G G30A U41C U43A A57G U67C, 0.07; to A18U A20G U41C U72C U76A, 0.45.

For A18G U43C A56U U58C U74A, the self-cleavage was 0.07. The same measure for A18G U43G U72A U78C: 0.15. The same measure for A18G U54C U58C U60C C62U U78C: 0.19; for A18G U67C U80C: 0.16. The same measure for A18G U26A U48C U67C: 0.14.

Consider A18G U41C U48G U51A U60A G70C, for which the self-cleavage came out at 0.06.

With A18G U48C U51C A57C U66C, the self-cleavage came out at 0.12.
